# Data reported in PubChem BioAssay AID686978 (National Center for Advancing Translational Sciences (NCATS), 2013).
# In all, about 420,000 compounds went through this assay and about 64,000 (15%) were called active. This list was built around the results that the source calls inconclusive (neither active nor inactive); the mix of calls is not that of the screen. Calls follow the shape of the dose curve; as a rule, active = well fitted inhibition curve with a large enough effect; inconclusive = small, poorly fitted or top-dose-only effect; inactive = flat fitted curve, though single readings scatter. Potencies of inconclusive entries are left out as doubtful fits.
# Assay: qHTS for Inhibitors of human tyrosyl-DNA phosphodiesterase 1 (TDP1): qHTS in cells in absence of CPT; also: nearly all actives have a fitted effect of over 55% in size
# Settings: DT40 Tdp1-/- hTDP1 cells, no CPT, ATP luminescence, 48 h; activity change, negative = growth inhibition: at 46.2 µM (top of the series)
# Method in brief: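 Chicken DT40 Tdp1-/- cells stably complemented with human TDP1 were seeded at 400 cells/well with DMSO in place of 20 nM camptothecin. After compound pinning, cells grew at least 48 hr at 37 °C; viability read by CellTiter-Glo luminescence.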
# % is scaled to controls: 0 for no effect and ±100 for the full control effect; potency is read from the fitted curve at half-maximal effect; tags tell the direction and shape of the fitted curve.
SMILES,Potency,"activity change, negative = growth inhibition"
COc1ccccc1CNc1nc(-c2ccco2)nn1S(=O)(=O)c1ccc(C)cc1,"inconclusive [inhibitor, single point]",–
CCOc1ccccc1CN(CCc1ccc2c(c1)OCO2)Cc1cc(OC)c(OC)cc1OC,active: 4.11 µM,–
CC(=O)Nc1ccc2nc(SCc3ccccc3)sc2c1,"inconclusive [inhibitor, single point]",–
CCOc1ccc(/C=C2/Sc3ccc(C(=O)NCC4CCCO4)cc3N(C)C2=O)cc1OC (centres undefined),"inconclusive [inhibitor, single point]",–
NC(=O)c1ccsc1NC(=O)CSc1nc2ccccc2c(=O)n1CCCO,"inconclusive [inhibitor, partial curve]",–
CCOC(=O)Cc1cnc(NC(=O)Cn2nnc(-c3ccc(OCC)cc3)n2)s1,inactive,–
Cc1ccc(C(=O)c2ccccc2C(=O)OCC(=O)Nc2cccc([N+](=O)[O-])c2)cc1,"inconclusive [inhibitor, single point]",–
O=C(/C=N/O)Nc1ccc2sc3ccccc3c2c1,"inconclusive [inhibitor, single point]",–
COC(=O)c1sc2ccccc2c1-n1cccc1C(=O)C(=O)Nc1ccccc1,"inconclusive [inhibitor, partial curve, poor fit]",–
COc1ccc(C2C(C#N)=C(N)Nc3onc(C(C)(C)C)c32)c(OC)c1 (centres undefined),active: 18.4 µM,–
COc1ccc(OC)c(NC(=S)NCc2ccco2)c1,inactive,–
CC1=NN(c2ccccc2)C(=O)/C1=C/C=C/c1ccc(N(C)C)cc1,active: 23.1 µM,–
O=C(N/C(=C\c1ccc([N+](=O)[O-])cc1)C(=O)N1CCCCC1)c1ccccc1Br,"inconclusive [inhibitor, single point]",–
CCCCCCOc1ccccc1C(N)=O,active: 16.4 µM,–
O=C(N/N=C/c1cccs1)c1cc(-c2cccc3ccccc23)n[nH]1,"inconclusive [inhibitor, single point]",–
CC(C)=CCCC(C)=CCN1C(=O)CN(C)C1=O,"inconclusive [inhibitor, partial curve]",–
CCOC(=O)N1CCC(NC(=O)c2cnn(-c3cccc(C)c3)c2C2CCN(C(=O)OC(C)(C)C)CC2)CC1,"inconclusive [inhibitor, single point]",–
CC1CCc2cccc3c2N1c1cc(C#N)c(C#N)cc1O3 (centres undefined),"inconclusive [inhibitor, partial curve]",–
CCOC(=O)c1c(NC(=O)C2CC=CCC2C(=O)O)sc(C)c1CC (centres undefined),"inconclusive [inhibitor, single point]",–
O=C(Nc1ccc(F)cc1)C1CCN(c2ncnc3c2nc2n3CCCCC2)CC1,active: 18.4 µM,–
Cc1ccccc1C(=O)NCc1ccc2c(c1)CCN2C(=O)c1ccccc1,active: 10.3 µM,–
COc1cccc(CCC2C(=O)CCCC2=O)c1,inactive,–
O=Cc1cn(CCOc2ccc(F)cc2)c2ccccc12,active: 11.6 µM,–
CCn1c(=O)c2sccc2n2c(CCCC(=O)N3CCN(c4ccccc4OC)CC3)nnc12,"inconclusive [inhibitor, single point]",–
C[C@@H](C(=O)Nc1ccc2ccccc2c1)[C@H]1C[C@]1(C)[C@H](NS(=O)(=O)c1ccccc1)c1ccccc1,active: 20.6 µM,–

SMILES,Potency,"activity change, negative = growth inhibition"
COc1ccccc1N(CN1CCCC1=O)C(=O)c1c(F)cccc1Cl,active: 10.3 µM,–
COCCNC(=O)C1(C)CCN(C(=O)COc2ccc(Cl)cc2Cl)C1 (centres undefined),inactive,–
Cc1ccc(-c2nsc(NC(=O)c3oc4cc(C)c(Cl)cc4c3C)n2)cc1,inactive,–
O=C(NCC(=O)N1CCN(C(c2ccccc2)c2ccccc2)CC1)c1ccc(Br)o1,"inconclusive [inhibitor, partial curve]",–
NC(=O)[C@H]1CC2(CC(c3cccc(NC(=O)CC(c4ccccc4)c4ccccc4)c3)=NO2)CN1C(=O)CC(c1ccccc1)c1ccccc1 (some centres undefined),"inconclusive [inhibitor, single point]",–
CC(=O)OCC1OC(OC(C)=O)C(NC(=O)c2cccnc2)C(OC(C)=O)C1OC(C)=O (centres undefined),"inconclusive [inhibitor, single point]",–
CC1=Nc2ccccc2/C1=C\c1nc(-c2ccccc2)oc1O,inactive,–
O=C(c1ccc(F)cc1)N1c2ncnn2C2(CCCCC2)[C@@H]2CCCC[C@@H]21,active: 20.6 µM,–
COc1ccc(CNC(=O)C(=O)NCC(c2cccs2)S(=O)(=O)c2ccc(C)cc2)cc1 (centres undefined),–,inconclusive: -30.6% [inhibitor]
O=C(/C=C/c1cccc(C(F)(F)F)c1)OCC(=O)N1CCN(c2ccccc2)CC1,"inconclusive [inhibitor, single point]",–
CC1(C)Cc2c(c(N3CCOCC3)nc3sc(C(=O)N4CCCCC4)c(N)c23)CO1,inactive,–
COc1ccc(CNC(=O)c2cc(Nc3ccc(OC)cc3OC)nc3ccccc23)cc1,"inconclusive [inhibitor, single point]",–
Cc1ccc(S(=O)(=O)N2CCCCC2)cc1NC(=O)C1CCCO1 (centres undefined),inactive,–
CCOC(=O)c1ccc(NC(=O)c2ccc3c(c2)CCN3S(=O)(=O)c2ccc(Cl)cc2)cc1,"inconclusive [inhibitor, partial curve]",–
COc1ccc(N(CC(=O)NCc2ccc(F)cc2)C(=O)CCC(=O)Nc2ccccn2)cc1,"inconclusive [inhibitor, single point]",–
CC(Oc1ccc(Cl)cc1Cl)C(=O)NNC(=O)c1ccncc1 (centres undefined),inactive,–
Cc1cccc(NS(=O)(=O)c2nnc(NC(=O)C3CCCCC3)s2)c1,"inconclusive [inhibitor, single point]",–
COc1ccc(-n2cnnc2SCC(=O)N(C)C2CCS(=O)(=O)C2)cc1 (centres undefined),inactive,–
CCOc1ccc(/C=C/C(=O)OCC(=O)c2ccccc2OC)cc1OC,active: 20.6 µM,–
O=S(=O)(NC(=NC1CCCC1)C(F)(F)F)c1ccccc1,inactive,–
Cc1ccc(N2CCN(C(=O)C(=O)c3cccc([N+](=O)[O-])c3)CC2)cc1,"inconclusive [inhibitor, single point]",–
S=c1[nH]nc(Cc2cccs2)n1-c1cccc2ccccc12,"inconclusive [inhibitor, partial curve]",–
O=C(NC1CCCc2c1cnn2-c1ccccc1F)c1ccccn1 (centres undefined),"inconclusive [inhibitor, partial curve, poor fit]",–
CC(CNC(=O)c1ccc(Cn2c(SCc3ccccc3)nc3cccnc32)cc1)c1ccccc1 (centres undefined),active: 20.6 µM,–
CCc1nn(C(C)C(=O)Nc2cccc(C)c2C)c(=O)c2cc3occc3n12 (centres undefined),"inconclusive [inhibitor, partial curve]",–

SMILES,Potency,"activity change, negative = growth inhibition"
COc1cccc(CN2CCN(C(=S)NCc3ccc(Cl)cc3)CC2)c1,active: 20.6 µM,–
CCc1ccc(C(=O)COC(=O)C2CCN(c3ccc(C(F)(F)F)cn3)CC2)cc1,inactive,–
CC(=O)Nc1cc(-c2ccccc2N(C)C)cn2c(-c3ccc(F)c(Cl)c3)cnc12,"inconclusive [inhibitor, single point]",–
CCN(CC(=O)NCc1cccs1)C(=O)COc1cccc(C(F)(F)F)c1,inactive,–
Cc1c(C(=O)N2CCc3ccccc3C2)oc2ccccc12,"inconclusive [inhibitor, single point]",–
Cc1ccc(-n2nc(CO)c(C(=O)NCCO)n2)cc1,inactive,–
COC(=O)C1=C(C)N(CCCC(=O)O)C(=O)NC1c1cccc(OC)c1 (centres undefined),inactive,–
COCCC(=O)N1CCC(Oc2ccc(C(=O)NCc3cccc(C)n3)cc2)CC1,inactive,–
Cc1c(N)c(C(C)(C)C)cc(C(C)(C)C)c1[N+](=O)[O-],"inconclusive [inhibitor, partial curve]",–
Cc1ccc(SCCNC(=O)CN(c2ccc3c(c2)OCO3)S(C)(=O)=O)cc1,"inconclusive [inhibitor, partial curve]",–
COc1cc(NC(=O)c2cc3ccccc3cc2OC)ccc1NC(=O)c1cccs1,active: 13 µM,–
CN(C)c1ncnc(N(C)C)c1[N+](=O)[O-],inactive,–
Cc1ccc(N=C2N=C(N)c3ccccc32)c(C)c1,inactive,–
CCOc1ccc(NC(=O)c2oc3ccccc3c2NC(=O)Cc2ccc(OC)c(OC)c2)cc1,"inconclusive [inhibitor, single point]",–
COc1ccc(-c2coc3c(OC)c(OC)cc(OC)c3c2=O)cc1,"inconclusive [inhibitor, single point]",–
COc1cc(CNc2ccc(N3CCOCC3)cc2)cc(Br)c1OC,active: 16.4 µM,–
COc1ccc2oc(=O)cc(CN3CCN(C(=O)c4ccccc4)CC3)c2c1,"inconclusive [inhibitor, partial curve]",–
CCCCCCC1CC(C)(C(=O)CNc2nncs2)OC1=O (centres undefined),inactive,–
COC(=O)c1ccccc1OCCOCCOc1cccc2ccc(C)nc12,active: 23.1 µM,–
COc1ccccc1-c1nccc(NCc2cnc(C)cn2)n1,inactive,–
CCOCCOc1nc(C)cc(C)c1S(=O)(=O)c1ccccc1C,"inconclusive [inhibitor, partial curve, poor fit]",–
COc1ccc(N/N=C2/CCCCC2=O)cc1,inactive,–
Cc1ccc(S(=O)(=O)N(CCCN2CCCC2=O)Cc2cc3c(C)ccc(C)c3[nH]c2=O)cc1,active: 23.1 µM,–
CC(C)c1nn2c(=O)cc(COC(=O)c3ccc(NC(=O)c4ccccc4Cl)cc3)nc2s1,"inconclusive [inhibitor, single point]",–
